# Data reported in the supplement of paper PMC8728848.
# The list shows a part of the results.
# Key:
# Assay in all cases: glycan array binding signal (z-score within array); higher = stronger binding
# Details in all cases: glycan notation: IUPAC condensed, linker removed
# GlcNAc(b1-3)Gal(b1-4)Glc = target: GlcNAc(b1-3)Gal(b1-4)Glc
# How it was run: (§1)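 Columns mapping to the same glycan were averaged after glycan names were converted to IUPAC-condensed notation. The data come from 3228 arrays in the Consortium for Functional Glycomics database, limited to those with an available protein sequence. Binding is reported as a within-array Z-score averaged across arrays of one protein sequence and across linkers.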
# [1] = target: GlcNAc(b1-3)Gal(b1-4)GlcNAc
# How it was run: as §1
# [2] = target: GlcNAc(b1-3)Gal(b1-4)GlcNAc(b1-2)Man(a1-3)[GlcNAc(b1-3)Gal(b1-4)GlcNAc(b1-2)Man(a1-6)]Man(b1-4)GlcNAc(b1-4)GlcNAc
# How it was run: as §1
# [3] = target: GlcNAc(b1-3)Gal(b1-4)GlcNAc(b1-2)Man(a1-3)[GlcNAc(b1-3)Gal(b1-4)GlcNAc(b1-2)Man(a1-6)]Man(b1-4)GlcNAc(b1-4)[Fuc(a1-6)]GlcNAc
# How it was run: as §1
# [4] = target: GlcNAc(b1-3)Gal(b1-4)GlcNAc(b1-2)[GlcNAc(b1-3)Gal(b1-4)GlcNAc(b1-6)]Man(a1-6)[GlcNAc(b1-3)Gal(b1-4)GlcNAc(b1-2)Man(a1-3)]Man(b1-4)GlcNAc(b1-4)GlcNAc
# How it was run: as §1
# [5] = target: GlcNAc(b1-3)Gal(b1-4)GlcNAc(b1-3)Gal(b1-4)GlcNAc
# How it was run: as §1
# [6] = target: GlcNAc(b1-3)Gal(b1-4)GlcNAc(b1-3)Gal(b1-4)GlcNAc(b1-2)Man(a1-3)[GlcNAc(b1-3)Gal(b1-4)GlcNAc(b1-3)Gal(b1-4)GlcNAc(b1-2)Man(a1-6)]Man(b1-4)GlcNAc(b1-4)GlcNAc
# How it was run: as §1
# [7] = target: GlcNAc(b1-3)Gal(b1-4)GlcNAc(b1-3)Gal(b1-4)GlcNAc(b1-2)Man(a1-3)[GlcNAc(b1-3)Gal(b1-4)GlcNAc(b1-3)Gal(b1-4)GlcNAc(b1-2)Man(a1-6)]Man(b1-4)GlcNAc(b1-4)[Fuc(a1-6)]GlcNAc
# How it was run: as §1
# [8] = target: GlcNAc(b1-3)Gal(b1-4)GlcNAc(b1-3)Gal(b1-4)GlcNAc(b1-2)[GlcNAc(b1-3)Gal(b1-4)GlcNAc(b1-3)Gal(b1-4)GlcNAc(b1-6)]Man(a1-6)[GlcNAc(b1-3)Gal(b1-4)GlcNAc(b1-3)Gal(b1-4)GlcNAc(b1-2)Man(a1-3)]Man(b1-4)GlcNAc(b1-4)[Fuc(a1-6)]GlcNAc
# How it was run: as §1
# [9] = target: GlcNAc(b1-3)Gal(b1-4)GlcNAc(b1-3)Gal(b1-4)GlcNAc(b1-3)Gal(b1-4)GlcNAc(b1-2)Man(a1-3)[GlcNAc(b1-3)Gal(b1-4)GlcNAc(b1-3)Gal(b1-4)GlcNAc(b1-3)Gal(b1-4)GlcNAc(b1-2)Man(a1-6)]Man(b1-4)GlcNAc(b1-4)GlcNAc
# How it was run: as §1
# [10] = target: GlcNAc(b1-3)Gal(b1-4)GlcNAc(b1-3)Gal(b1-4)GlcNAc(b1-3)Gal(b1-4)GlcNAc(b1-2)Man(a1-3)[GlcNAc(b1-3)Gal(b1-4)GlcNAc(b1-3)Gal(b1-4)GlcNAc(b1-3)Gal(b1-4)GlcNAc(b1-2)Man(a1-6)]Man(b1-4)GlcNAc(b1-4)[Fuc(a1-6)]GlcNAc
# How it was run: as §1
# [11] = target: GlcNAc(b1-3)Gal(b1-4)GlcNAc(b1-3)Gal(b1-4)GlcNAc(b1-3)Gal(b1-4)GlcNAc(b1-2)[GlcNAc(b1-3)Gal(b1-4)GlcNAc(b1-3)Gal(b1-4)GlcNAc(b1-3)Gal(b1-4)GlcNAc(b1-6)]Man(a1-6)[GlcNAc(b1-3)Gal(b1-4)GlcNAc(b1-3)Gal(b1-4)GlcNAc(b1-3)Gal(b1-4)GlcNAc(b1-2)Man(a1-3)]Man(b1-4)GlcNAc(b1-4)[Fuc(a1-6)]GlcNAc
# How it was run: as §1
# [12] = target: GlcNAc(b1-3)Gal(b1-4)GlcNAc(b1-3)Gal(b1-4)GlcNAc(b1-3)Gal(b1-4)GlcNAc(b1-3)Gal(b1-4)GlcNAc(b1-2)Man(a1-3)[GlcNAc(b1-3)Gal(b1-4)GlcNAc(b1-3)Gal(b1-4)GlcNAc(b1-3)Gal(b1-4)GlcNAc(b1-3)Gal(b1-4)GlcNAc(b1-2)Man(a1-6)]Man(b1-4)GlcNAc(b1-4)GlcNAc
# How it was run: as §1
# [13] = target: GlcNAc(b1-3)Gal(b1-4)GlcNAc(b1-3)Gal(b1-4)GlcNAc(b1-3)Gal(b1-4)GlcNAc(b1-3)Gal(b1-4)GlcNAc(b1-2)Man(a1-3)[GlcNAc(b1-3)Gal(b1-4)GlcNAc(b1-3)Gal(b1-4)GlcNAc(b1-3)Gal(b1-4)GlcNAc(b1-3)Gal(b1-4)GlcNAc(b1-2)Man(a1-6)]Man(b1-4)GlcNAc(b1-4)[Fuc(a1-6)]GlcNAc
# How it was run: as §1
# [14] = target: GlcNAc(b1-3)Gal(b1-4)GlcNAc(b1-3)Gal(b1-4)GlcNAc(b1-3)Gal(b1-4)GlcNAc(b1-3)Gal(b1-4)GlcNAc(b1-2)[GlcNAc(b1-3)Gal(b1-4)GlcNAc(b1-3)Gal(b1-4)GlcNAc(b1-3)Gal(b1-4)GlcNAc(b1-3)Gal(b1-4)GlcNAc(b1-6)]Man(a1-6)[GlcNAc(b1-3)Gal(b1-4)GlcNAc(b1-3)Gal(b1-4)GlcNAc(b1-3)Gal(b1-4)GlcNAc(b1-3)Gal(b1-4)GlcNAc(b1-2)Man(a1-3)]Man(b1-4)GlcNAc(b1-4)[Fuc(a1-6)]GlcNAc
# How it was run: as §1
# [15] = target: GlcNAc(b1-3)Gal(b1-4)GlcNAc(b1-3)Gal(b1-4)GlcNAc(b1-3)GalNAc
# How it was run: as §1
# [16] = target: GlcNAc(b1-3)Gal(b1-4)GlcNAc(b1-3)GalNAc
# How it was run: as §1
# [17] = target: GlcNAc(b1-3)Gal(b1-4)GlcNAc(b1-3)[GlcNAc(b1-3)Gal(b1-4)GlcNAc(b1-3)]GalNAc
# How it was run: as §1
# [18] = target: GlcNAc(b1-3)Gal(b1-4)GlcNAc(b1-6)[Gal(b1-3)]GalNAc
# How it was run: as §1
# [19] = target: GlcNAc(b1-3)Gal(b1-4)GlcNAc(b1-6)[GlcNAc(b1-3)Gal(b1-3)]GalNAc
# How it was run: as §1
# [20] = target: GlcNAc(b1-3)Gal(b1-4)GlcNAc(b1-6)[GlcNAc(b1-3)]Gal(b1-4)GlcNAc
# How it was run: as §1
# GlcNAc(b1-3)GalNAc = target: GlcNAc(b1-3)GalNAc
# How it was run: as §1
# GlcNAc(b1-3)Man = target: GlcNAc(b1-3)Man
# How it was run: as §1
# [21] = target: GlcNAc(b1-3)[GlcNAc(b1-4)][GlcNAc(b1-6)]GlcNAc
# How it was run: as §1
# [22] = target: GlcNAc(b1-3)[GlcNAc(b1-6)]Gal(b1-4)GlcNAc
# How it was run: as §1
# [23] = target: GlcNAc(b1-3)[GlcNAc(b1-6)]GalNAc
# How it was run: as §1
# [24] = target: GlcNAc(b1-4)Gal(b1-4)GlcNAc
# How it was run: as §1
# GlcNAc(b1-4)GlcNAc = target: GlcNAc(b1-4)GlcNAc
# How it was run: as §1
# [25] = target: GlcNAc(b1-4)GlcNAc(b1-4)GlcNAc
# How it was run: as §1
# [26] = target: GlcNAc(b1-4)GlcNAc(b1-4)GlcNAc(b1-4)GlcNAc(b1-4)GlcNAc
# How it was run: as §1
# [27] = target: GlcNAc(b1-4)GlcNAc(b1-4)GlcNAc(b1-4)GlcNAc(b1-4)GlcNAc(b1-4)GlcNAc
# How it was run: as §1
# [28] = target: GlcNAc(b1-4)[GlcNAc(b1-6)]GalNAc
# How it was run: as §1
# [29] = target: GlcNAc(b1-6)Gal(b1-4)GlcNAc
# How it was run: as §1
# GlcNAc(b1-6)GalNAc = target: GlcNAc(b1-6)GalNAc
# How it was run: as §1
# [30] = target: GlcNAc6S(b1-3)Gal(b1-4)GlcNAc
# How it was run: as §1
# Kdn(a2-3)Gal(b1-3)GalNAc = target: Kdn(a2-3)Gal(b1-3)GalNAc
# How it was run: as §1
# Kdn(a2-3)Gal(b1-3)GlcNAc = target: Kdn(a2-3)Gal(b1-3)GlcNAc
# How it was run: as §1
binder,measurement,setting,value
GS7807E-bfa-538-23-538 (Bacteroides fragilis) (protein) TDSFESFNTNEAGFDNDSKKQDFNYYGIPLGIIQQGIYFNYDWGSGKNWPFQTMQNLGADLFSGYVHDFNPFNEGKNNSTYYMMDGWNGSTWDNTYGYIMPEVQKSETINEKDNIGFFGITKILKVELMHRLSDLYGPIVYTQFGSKTGSTPDTQQEAYKAFFNDLDTGIAKIREYQKANPDIESFAKFDILMPQGKRTFSEWIRFANSLRLRLAVRIAMADSKLAVAEAQKALTDEEGLLEGNDEVVAVSTSSGYTNPFGEINKAWGEVFMNANMESLLVGYEDPRMEKYFDKATGSDATSLIDYKGTYKGIRQGTGFSHKNYNGHSKSTITQQTDAVLMTPAEVWFLRAEAALRGWSSESVKDCYEKGVKASFAQWGAAGAEAYLESDRKPSDYVDAFKAANNVKAVNTLTPKWDDAAGNEDKLGRIITQKWLAMFPEGGEAWAEQRRTGYPRLFPVLVNQSEGTVDTNLGPRRLNFFVGIKTTNPEQYTQLVNALGGIDNCGTRLWWDTGRNF,glycan array binding signal (z-score),GlcNAc(b1-3)Gal(b1-4)Glc,-0.702
same,glycan array binding signal (z-score),[1],-0.672
same,glycan array binding signal (z-score),[2],-0.233
same,glycan array binding signal (z-score),[3],-0.215
same,glycan array binding signal (z-score),[4],-0.511
same,glycan array binding signal (z-score),[5],-0.578
same,glycan array binding signal (z-score),[6],-0.536
same,glycan array binding signal (z-score),[7],0.135
same,glycan array binding signal (z-score),[8],1.92
same,glycan array binding signal (z-score),[9],0.228
same,glycan array binding signal (z-score),[10],-0.408
same,glycan array binding signal (z-score),[11],-0.457
same,glycan array binding signal (z-score),[12],0.374
same,glycan array binding signal (z-score),[13],-0.491
same,glycan array binding signal (z-score),[14],0.103
same,glycan array binding signal (z-score),[15],-0.689
same,glycan array binding signal (z-score),[16],-0.644
same,glycan array binding signal (z-score),[17],0.752
same,glycan array binding signal (z-score),[18],-0.669
same,glycan array binding signal (z-score),[19],-0.354
same,glycan array binding signal (z-score),[20],-0.684
same,glycan array binding signal (z-score),GlcNAc(b1-3)GalNAc,-0.476
same,glycan array binding signal (z-score),GlcNAc(b1-3)Man,-0.645
same,glycan array binding signal (z-score),[21],-0.249
same,glycan array binding signal (z-score),[22],-0.656
same,glycan array binding signal (z-score),[23],-0.6
same,glycan array binding signal (z-score),[24],-0.677
same,glycan array binding signal (z-score),GlcNAc(b1-4)GlcNAc,-0.651
same,glycan array binding signal (z-score),[25],-0.68
same,glycan array binding signal (z-score),[26],-0.676
same,glycan array binding signal (z-score),[27],-0.544
same,glycan array binding signal (z-score),[28],-0.662
same,glycan array binding signal (z-score),[29],2.02
same,glycan array binding signal (z-score),GlcNAc(b1-6)GalNAc,1.4
same,glycan array binding signal (z-score),[30],3.84
same,glycan array binding signal (z-score),Kdn(a2-3)Gal(b1-3)GalNAc,-0.018
same,glycan array binding signal (z-score),Kdn(a2-3)Gal(b1-3)GlcNAc,2.05
